# Results from the BET-seq Pho4 binding data (Le et al. 2018).
# This is one part of the list. Values were computed here from the reads of four pooled replicates and scatter widely.
# Molecular target: T1, Pho4 (S. cerevisiae) (UniProt P07270)
# T1 sequence: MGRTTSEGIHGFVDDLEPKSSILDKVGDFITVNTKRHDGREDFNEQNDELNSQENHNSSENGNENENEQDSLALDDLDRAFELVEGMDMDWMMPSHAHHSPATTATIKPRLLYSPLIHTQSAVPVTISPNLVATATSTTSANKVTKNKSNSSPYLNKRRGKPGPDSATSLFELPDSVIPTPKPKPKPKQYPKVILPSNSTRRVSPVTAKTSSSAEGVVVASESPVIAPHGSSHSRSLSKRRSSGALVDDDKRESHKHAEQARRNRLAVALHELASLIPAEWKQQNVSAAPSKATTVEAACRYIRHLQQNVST
# Test: relative binding free energy (BET-seq); higher = weaker binding
# Settings: reference: library average
row,Sequence,relative binding free energy [kcal/mol]
1,TGGCCCACGTGGTGCG,-0.14
2,TCATGCACGTGTTGGA,-0.1
3,GGGGCCACGTGTAGGG,0.02
4,TGTGTCACGTGGGGAT,-0.08
5,GTTTACACGTGTGCGA,0.11
6,TTGGGCACGTGGATCA,-0.07
7,TATGTCACGTGTTCTA,0
8,GTTTACACGTGCTTTG,0.09
9,TCTTTCACGTGGTAGG,0.18
10,CCGGTCACGTGGGGGT,-0.16
11,TGGTGCACGTGCGGGC,0.03
12,GGTGTCACGTGTCATT,0.02
13,TGAGGCACGTGTGGAC,-0.08
14,GGGTGCACGTGCGGTA,-0.09
15,GTGGTCACGTGCTAAG,0.14
16,TAAATCACGTGGAGAT,0.19
17,AAGAACACGTGAATGG,0.44
18,CGGAGCACGTGTAGTT,-0.04
19,TGTGGCACGTGTCGCT,-0.07
20,TTGGTCACGTGGGGAC,0.06
21,GGTGGCACGTGACTTA,0.23
22,ATGGGCACGTGTATAA,-0.07
23,TAGTACACGTGTAAGT,0.07
24,TTCGACACGTGTAAGG,0.14
25,GTGGACACGTGAAGTT,0.37

row,Sequence,relative binding free energy [kcal/mol]
1,CGTGGCACGTGATCGT,-0.05
2,CGTTGCACGTGGGCAT,-0.24
3,AGCAGCACGTGGGGTA,-0.2
4,TTAAACACGTGATGGA,0.28
5,GTGTACACGTGTGAGT,0.19
6,CAGATCACGTGGGGAG,-0.03
7,AATTACACGTGTCGTA,0.3
8,ATTTGCACGTGTCTAT,0.06
9,GGCTACACGTGTGCTG,0.24
10,GGTTACACGTGGCGGT,0.13
11,AATTACACGTGTTGAT,0.15
12,GATAGCACGTGAGGTT,0.15
13,TTAGCCACGTGGTAGG,-0.12
14,AATGTCACGTGAGTGT,0.33
15,TTTGGCACGTGCCTTA,-0.15
16,TTTGGCACGTGGCCTG,-0.19
17,TGAAGCACGTGTACGG,0.06
18,CGGTGCACGTGGGTCA,-0.28
19,AATTTCACGTGTAATG,0.21
20,TACGTCACGTGATTAT,0.19
21,GGTGGCACGTGGGTCA,-0.23
22,GGCGACACGTGCGTGG,-0.11
23,AGTTTCACGTGGGAGG,0.22
24,AATGTCACGTGGTGTA,-0.05
25,GGACTCACGTGATAGG,0.41

row,Sequence,relative binding free energy [kcal/mol]
1,TTCTTCACGTGTTCTA,0.4
2,TAGTTCACGTGTCTTT,0.15
3,TATGTCACGTGTCAAT,0.11
4,TGGGACACGTGTTACT,0.16
5,TTATCCACGTGTGCGT,0
6,AGGGACACGTGGTCAA,0.02
7,TGACACACGTGTGTGT,-0.04
8,ATTGCCACGTGCGGTG,-0.2
9,CCTGGCACGTGGGATG,-0.12
10,GGCTTCACGTGGAAAG,0.4
11,ATAAACACGTGTGATT,0.22
12,ACATACACGTGGATGT,0.16
13,TCGGACACGTGAGTGT,0.17
14,ATTGTCACGTGTGGGG,0.15
15,AGGTTCACGTGCTTGT,0.23
16,ATCGGCACGTGTGGGA,0.02
17,GTGAACACGTGGTTGT,-0.02
18,GTAGGCACGTGCTTGA,-0.15
19,GGTTACACGTGGATTG,0.09
20,AAATGCACGTGGTAGT,-0.07
21,ATATACACGTGAAGTG,0.27
22,ATTGTCACGTGGCGGT,-0.05
23,GGTAGCACGTGGATTG,-0.04
24,GGTGCCACGTGAACGG,0.16
25,AGGTGCACGTGGGGCA,-0.26

row,Sequence,relative binding free energy [kcal/mol]
1,ACTAGCACGTGTGGGA,0.06
2,TTGCACACGTGCGTGT,-0.11
3,CGTGTCACGTGGTAGT,0.06
4,AAATGCACGTGGGCTT,-0.26
5,GGATACACGTGGCGTT,0.13
6,AACGTCACGTGGGGTA,-0.2
7,TGATTCACGTGCAATT,0.24
8,CAAGGCACGTGACGGG,0.01
9,ATAGCCACGTGTTGTT,-0.02
10,AATGTCACGTGATTCG,0.21
11,TGAGCCACGTGCGGGG,-0.15
12,AGGTGCACGTGCGGGG,-0.1
13,GTCGACACGTGTTGGT,0.1
14,AGGTGCACGTGCGTAT,-0.14
15,GGTATCACGTGTGGCA,0.15
16,TGATTCACGTGGTACG,0.26
17,TTTTGCACGTGGATAT,0.09
18,GGGTACACGTGAAGTA,0.3
19,TTGTTCACGTGTAAGC,0.39
20,TTATTCACGTGAGTCG,0.38
21,GTTTGCACGTGCAGTG,0
22,ATGTGCACGTGGAATT,0.14
23,TTGGCCACGTGAGCGG,0.01
24,TAATGCACGTGTCGTG,-0.12
25,TTGGGCACGTGATTTT,0.01

row,Sequence,relative binding free energy [kcal/mol]
1,TACGTCACGTGGAGGA,0.2
2,ATATTCACGTGCGTTA,0.19
3,TCAAGCACGTGTTGTA,-0.04
4,GTTGTCACGTGGTGCC,0.05
5,TGTTGCACGTGCTTAG,-0.12
6,TGGTCCACGTGGAGAG,-0.01
7,GGGGCCACGTGTATAT,0.01
8,TGGGCCACGTGGCTGA,-0.14
9,GAGCGCACGTGGGATG,-0.19
10,GCGCGCACGTGAGTTG,0.15
11,ATGAGCACGTGGCTGG,-0.08
12,AAGCACACGTGTGGTG,0.05
13,GGGGCCACGTGTTTTT,0.03
14,GATTTCACGTGTTCGG,0.3
15,TGATCCACGTGTGTGG,0.06
16,ATGGTCACGTGGATAC,0.25
17,ATGGACACGTGAGTCT,0.32
18,TGAATCACGTGCAGTG,-0.01
19,AGATGCACGTGGAGGT,-0.02
20,GGGTACACGTGTAAGA,0.23
21,AATCGCACGTGGTGTG,-0.16
22,TGGTTCACGTGGTCAA,0.15
23,TGGGCCACGTGAGTAG,0.19
24,TTTCGCACGTGTTGCG,-0.06
25,TACTGCACGTGTGTTA,-0.02

row,Sequence,relative binding free energy [kcal/mol]
1,TGAGTCACGTGGGGCA,-0.03
2,GATTCCACGTGTTTGT,-0.06
3,CAGGGCACGTGAATGG,-0.03
4,TGGGTCACGTGACGCG,0.24
5,AACTTCACGTGTTATG,0.24
6,GTAGGCACGTGGGAGG,-0.13
7,GTATACACGTGCGGTG,0.12
8,AAGTACACGTGGCGGT,0.25
9,CGTTACACGTGGCGTT,0.03
10,CTTGGCACGTGTAATT,0.05
11,GTGATCACGTGTGTGC,0.06
12,GAGGACACGTGGGATG,-0.09
13,GTTAACACGTGTATTG,-0.09
14,AGTTTCACGTGGCTAG,0.15
15,GGGTACACGTGCGTCG,-0.09
16,CTTCTCACGTGGGGTT,0.03
17,ATCTTCACGTGGTATA,0.26
18,TTCGGCACGTGTAGTT,-0.13
19,AGTACCACGTGTTGAG,0.07
20,TTTGTCACGTGAATTA,0.09
21,TTTATCACGTGGCGGT,0.19
